This is one part of the list.

The labels stand for the following.
B1: chr2:216981417:216981418:+_ENSG00000079246_ENST00000392132|hu_hu|hu_hu_hu_mus_True|38_108 (ssRNA)
RNA: GGGAGUUCUACAGUCCGACGAUCCUGAUACUGAUCCUUGCCAGCAAGGGCAUUAUCAGUGCCAUCUGUGCCAUAGAGGACUAACGCAAUCUCAUCUUUGUUCUCAGAAAAUACCUGUCGUUGGACAAACAUAGUCAUCACUUUCAACAGAGGAUUGAGCAUCA
B2: chr13:51516861:51516862:+_ENSMUSG00000067586_ENSMUST00000087978|mus_hu|FALSE|FALSE (ssRNA)
RNA: GGGAGUUCUACAGUCCGACGAUCCAUUGAUGUCAAGAAGGCAACAGAAAUGCUCCUGGGGAAGAUCUCCUUACAAAUAGGUUUCAUCUCAUCAGUAACAAAAAUUAGAAAAGCCUUUGGUCAGCCCAUGGAGGUGAGUUACUCCAACAGAGGAUUGAGCAUCA
B3: chrX:140365796:140365797:-_ENSMUSG00000031285_ENSMUST00000033642|mus_mus|mus_mus_mus_hu_False|38_58 (ssRNA)
RNA: GGGAGUUCUACAGUCCGACGAUCCUUCUCAUUACUCAGUGCCUGCAAGGUUCUGGUUCGGUAGAAGCUACAGUGGGCACUAUGAGUGGGGCUAGGCAGUCCAUUCAUCCGGGAGCCUCGCAUGUUCCUGGAUGUCUUAUCUCUCAACAGAGGAUUGAGCAUCA
B4: chr7:28421298:28421299:+_ENSMUSG00000004056_ENSMUST00000051356|mus_hu|FALSE|FALSE (ssRNA)
RNA: GGGAGUUCUACAGUCCGACGAUCCAUCAUCUCGUACAUGACCACACCCAGCCCCCACCAGUCCACGGCCCGGCCAUAGUCAUUGUCCUCCAGCACCUCAGGCGCCAGGUACUCCGGGGUCCCACAGAAGGUUUUCAUGGUGGCCAACAGAGGAUUGAGCAUCA
B5: chr7:90019433:90019434:+_ENSMUSG00000057706_ENSMUST00000082237|mus_mus|FALSE|FALSE (ssRNA)
RNA: GGGAGUUCUACAGUCCGACGAUCAAUAAUACAGUGUUCUUUGCCAUAAGGCCAUACUAAAAAUAAAAAGAUUUAACCCAGCUACAAAAAAGUUCACUGAACUUAAAUUAAAAUACUUGUAAACAUCUUUGCAAUAUGAAAUAUCAACAGAGGAUUGAGCAUCA
B6: chr11:75578393:75578394:+_ENSMUSG00000020849_ENSMUST00000067664|mus_hu|motif|central (ssRNA)
RNA: GGGAGUUCUACAGUCCGACGAUCGACACAGUAAUGCUGAAAAAGCCUCUAUGUAGUCCUGUUAGUGUCUUAAAGAACCGGAAAGCUGGGACCAGUAAAAUCCACAGAAAUUCACUCUUGCCUUUAAGAACUUUUGAAAACUGUCAACAGAGGAUUGAGCAUCA
B7: chr17:34036268:34036269:+_ENSG00000006125_ENST00000262325|hu_mus|FALSE|FALSE (ssRNA)
RNA: GGGAGUUCUACAGUCCGACGAUCCAUUUUGCCAUCUUCUACAAAAAGCACAUUGAGUGGGAUGAGGCAGCUGAAGUAGAAGACAUCAAUAUUGUUUUUAACAGCCACCUGCAGGUUAUUCAGGGGCUCCAUCUUCAUGACUGGCAACAGAGGAUUGAGCAUCA
B8: chr11:120422317:120422318:-_ENSMUSG00000025130_ENSMUST00000026122|mus_mus|FALSE|FALSE (ssRNA)
RNA: GGGAGUUCUACAGUCCGACGAUCGCUGACCUGGACAGAGAUCCCUUUCCAAAAUUGAAAAGCAAAAGAAGAGACAGGUCUAAGUGUACGUGUGUCAGAUGAGUGUGGCUUCAGAAAGAUUCCCUGGGUUCUGAUGGCGCUCCCCAACAGAGGAUUGAGCAUCA
B9: chr10:27409400:27409401:-_ENSG00000136758_ENST00000375972|hu_mus|motif|central (ssRNA)
RNA: GGGAGUUCUACAGUCCGACGAUCAGCUUGGUUCACAAGAUUCUCCAACUCUGCUCCAGAGAACCCAACAGUCCCUCGAGCGGUGAUUUCUGGAUCAACAGAUUUAUCAAACUUUAUCUUGUUGAGAUACCAUUUCAAAAUUUCCAACAGAGGAUUGAGCAUCA
B10: chr8:71331417:71331418:+_ENSMUSG00000031864_ENSMUST00000110241|mus_hu|FALSE|FALSE (ssRNA)
RNA: GGGAGUUCUACAGUCCGACGAUCGACCAGCAUGGUGGAAUACACCACUUGGUUUUUAUAUUUUGCAUGUGCUUCACUAUCAAAGUUGUUCAUGUAUCUGCAGAGAUCCUUCAUUCUAUGCAAAAUAUCUCCAUAGCUUCGUCUCAACAGAGGAUUGAGCAUCA
B11: 81065872_81065992_3071_CDS_ENSG00000108175_ENST00000334512|human|control|control (ssRNA)
RNA: GGGAGUUCUACAGUCCGACGAUCCAUCUGGCUGGGACUCAUGGUCUUGAACCGCUUGGAGGGGAUGCCAUCAGGGUCGUCCUUGAUGUGUAAGUCCGACUUGAUGGGCACCGGCCGCCAGCUGCACGUGGGAUCGAUGGUGACCAACAGAGGAUUGAGCAUCA
B12: chr4:115894766:115894767:+_ENSMUSG00000028698_ENSMUST00000030464|mus_hu|mus_mus_mus_hu_True|68_98 (ssRNA)
RNA: GGGAGUUCUACAGUCCGACGAUCUUCCACACGGAAAGUACUUGGGGGUUUUCCAACGGCCAGUACCGUCCAGCCAAAACUACCCGAACAGGGUCCUCCCCCUCUCUCCUACAGAACACAACAAAAUGCCCCCGAACUUUCAAGCAACAGAGGAUUGAGCAUCA
B13: chr5:119214657:119214658:+_ENSMUSG00000018076_ENSMUST00000100816|mus_mus|FALSE|FALSE (ssRNA)
RNA: GGGAGUUCUACAGUCCGACGAUCAUAGCUUUUUUUUCUGGUUUUUUUUGUGUUUUUUUUUUCCUUUUCACUUUUUCUGCGUAGAGUUGGGUUUCUAGGGAAGAAAAGCCCCUGCAGUAAAAACAGCCCAUUUAAAAAAGAGAGCAACAGAGGAUUGAGCAUCA
B14: 123137163_123189634_1759_CDS_ENSMUSG00000041650_ENSMUST00000038374|mouse|control|control (ssRNA)
RNA: GGGAGUUCUACAGUCCGACGAUCGGGUGACGCCAGGUUCCACGUACUGGUCACAUUUAGUUUCGAGCCAUCAACUUCCACGGUAAAUGCCGGCCCAUUGUUAGAUGCCACGACAGUAUGAUCUUCAUCAUGUAACUUUACCGACAACAGAGGAUUGAGCAUCA

The assay concerns the target T1, UNK ZnF1-3 (human, UniProt Q9C0B0 31-174).
T1 sequence: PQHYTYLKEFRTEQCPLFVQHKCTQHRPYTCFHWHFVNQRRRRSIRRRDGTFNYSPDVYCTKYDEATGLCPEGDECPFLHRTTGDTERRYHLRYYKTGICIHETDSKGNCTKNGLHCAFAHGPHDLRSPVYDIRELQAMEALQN
Nature of the assay: nsRBNS (natural sequence RNA bind-n-seq); RBNS binding buffer (assumed for nsRBNS): 25 mM Tris pH 7.5, 150 mM KCl, 3 mM MgCl2, 0.01% Triton X-100, 500 ug/ml BSA, 20 U/ml SUPERase-In, 4 C; UNK is unkempt and MSI1 is Musashi-1; names of the RNAs are library labels; protein concentration not given here; high values mean tight binding.
For B1, the binding signal came out at 0.641 enrichment R. For the molecule B2, the binding signal was determined as 1.79 enrichment R. In the case of B3, the binding signal was found to be 0.321 enrichment R.

Take B4: the binding signal is 1.8 enrichment R. B5 yielded a binding signal of 1.69 enrichment R. Molecule B6 came in with a binding signal of 1.61 enrichment R.

As for B7, the binding signal is 1.13 enrichment R. As to B8, the binding signal came to 1.35 enrichment R. Turning to B9, the binding signal amounted to 0.859 enrichment R. For B10, the binding signal was 0.743 enrichment R.

For the molecule B11, the binding signal was 0.917 enrichment R. Molecule B12 showed a binding signal of 1.2 enrichment R. Consider B13, for which the binding signal was 1.21 enrichment R. Turning to B14, the binding signal turned out to be 1.09 enrichment R.

The values above are taken from article PMC12136788.
